# Laboratory results published in paper PMC4336329 (PLoS ONE, 2015).
# Hit rate of the full screen: of about 310,000 compounds, about 2,200 (0.71%) showed an effect of 50% or more. Effects have a minus sign here. This is one part of the list.
# Target: human ether-à-go-go-related gene (hERG) potassium channel (human, UniProt Q12809)
# Test: primary screen, population patch clamp on CHO cells stably expressing hERG
# Sequence of human ether-à-go-go-related gene (hERG) potassium channel (Q12809 whole entry, looked up): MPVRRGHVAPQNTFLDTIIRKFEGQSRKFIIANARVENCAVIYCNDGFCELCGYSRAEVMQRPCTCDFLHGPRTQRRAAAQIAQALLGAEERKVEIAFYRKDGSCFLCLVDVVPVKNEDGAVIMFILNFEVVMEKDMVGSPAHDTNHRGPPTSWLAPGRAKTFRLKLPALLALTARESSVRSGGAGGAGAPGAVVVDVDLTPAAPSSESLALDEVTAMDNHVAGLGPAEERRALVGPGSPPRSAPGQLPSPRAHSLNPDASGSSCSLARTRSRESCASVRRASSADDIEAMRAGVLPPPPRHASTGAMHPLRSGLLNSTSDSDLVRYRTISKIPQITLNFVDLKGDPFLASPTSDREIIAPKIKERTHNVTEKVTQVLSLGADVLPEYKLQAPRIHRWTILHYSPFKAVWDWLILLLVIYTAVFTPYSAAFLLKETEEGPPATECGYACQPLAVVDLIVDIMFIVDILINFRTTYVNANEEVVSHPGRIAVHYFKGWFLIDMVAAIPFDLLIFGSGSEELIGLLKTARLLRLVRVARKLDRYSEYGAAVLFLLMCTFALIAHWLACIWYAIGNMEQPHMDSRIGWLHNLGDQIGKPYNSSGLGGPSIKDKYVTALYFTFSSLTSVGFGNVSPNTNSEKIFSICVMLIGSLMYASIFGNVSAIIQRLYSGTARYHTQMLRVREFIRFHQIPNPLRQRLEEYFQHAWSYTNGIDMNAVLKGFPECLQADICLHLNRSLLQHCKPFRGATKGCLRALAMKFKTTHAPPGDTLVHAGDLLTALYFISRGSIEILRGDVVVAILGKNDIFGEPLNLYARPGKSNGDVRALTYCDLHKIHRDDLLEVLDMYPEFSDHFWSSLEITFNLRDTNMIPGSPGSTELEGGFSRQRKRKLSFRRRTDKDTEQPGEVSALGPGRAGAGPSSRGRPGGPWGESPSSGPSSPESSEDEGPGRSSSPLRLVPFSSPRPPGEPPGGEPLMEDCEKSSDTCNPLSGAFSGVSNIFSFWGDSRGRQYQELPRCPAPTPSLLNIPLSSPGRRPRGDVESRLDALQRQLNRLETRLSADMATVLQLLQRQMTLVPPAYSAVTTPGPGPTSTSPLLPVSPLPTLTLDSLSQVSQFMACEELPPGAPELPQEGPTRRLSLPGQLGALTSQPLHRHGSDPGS
row,Structure (SMILES),"hERG current change (%, negative = inhibition) at 1uM"
1,CCn1c(=O)c2cc(C(=O)NC(C)C)sc2c2ccccc21,6.27%
2,CCOC(=O)c1c(NC(=O)CSc2nnc(CNc3ccc(F)cc3)o2)sc(C(C)=O)c1C,8.34%
3,Cc1ccc(NC(=O)/C=C/c2ccc(Cl)cc2)nc1,21.4%
4,CC(C)c1c(O)nc(SCCC(=O)O)[nH]c1=O,3.76%
5,Cc1cc(/C(N)=N/OC(=O)c2ccccc2Cl)no1,5.21%
6,COc1ccc(C(=O)CSc2nnc(CNc3ccc(C)cc3C)n2Cc2ccco2)cc1,8.09%
7,COc1ccc(C(=O)NCCc2ccc(Cl)cc2)cc1S(=O)(=O)N1CCCCC1C (stereo not shown),-19.2%
8,Cc1cc(NC(=O)COc2nnc(-c3ccccc3)c3ccccc23)no1,6.52%
9,COc1cccc(NC(=O)CS(=O)(=O)Cc2nc(-c3ccc(C)cc3)oc2C)c1,11.5%
10,COCCN(C(=O)C1=COCCO1)c1c(N)n(CC(C)C)c(=O)[nH]c1=O,4.31%
11,CC(=O)Nc1ccc(NC(=O)C(C)OC(=O)/C=C/c2cnc3ccccc3n2)cc1 (stereo not shown),5.5%
12,O=C1C2C3c4ccccc4C(c4ccccc43)C2C(=O)N1c1cccc2cccnc12 (stereo not shown),7.48%
13,O=C(c1ccco1)N1CCN(C2CC(=O)N(c3ccc4c(c3)OCO4)C2=O)CC1 (stereo not shown),-3.02%
14,O=S(=O)(Nc1nc2ccccc2nc1-[n+]1cccc(N=C([O-])c2ccccc2Cl)c1)c1ccccc1,12.3%
15,COc1ccc(CCN(C)C(=O)CSc2nnc(C3CC3)n2N)cc1OC,-8.93%
16,CC1=C(C(=O)N2CCOCC2)C(c2ccsc2)C2=C(CCCC2=O)N1 (stereo not shown),1.98%
17,Cc1ccc(OCc2ccc(C(=O)NNC(=S)NCC3CCCO3)o2)c([N+](=O)[O-])c1 (stereo not shown),-3.39%
18,Cc1[nH]n(-c2ccc([N+](=O)[O-])cc2)c(=O)c1C=NCC1CCCO1 (stereo not shown),7.67%
19,CC(C)C(c1nnnn1C(C)(C)C)N1CCN(Cc2cccnc2)CC1.Cl (stereo not shown),9.26%
20,Cc1[nH]n2c(=O)cc(-c3ccc([N+](=O)[O-])cc3)nc2c1-c1ccccc1,5.66%
21,Cc1noc(C)c1COC(=O)C(c1ccccc1)c1ccccc1,15%
22,O=C1Nc2cc(Cl)ccc2Nc2cscc21,11.7%
23,Cc1cccc(-n2c(SCC(=O)Nc3ncc(Cl)cc3Cl)nc3ccccc32)c1,16.8%

row,Structure (SMILES),"hERG current change (%, negative = inhibition) at 1uM"
1,CCOC(=O)C1(CC2CC2)CCN(Cc2cnc(-c3ccc(OC)cc3)nc2)CC1,11.7%
2,Cc1ccc(C(=O)Nc2ccc(S(=O)(=O)N3CCOCC3)cc2)cc1C,10.5%
3,O=C(Cn1c(=O)oc2ccc(Cl)cc21)NC1CCCCC1,15%
4,CCOC(=O)CSc1nc2c(c(=O)n(Cc3ccccc3Cl)c(=O)n2C)n1C,9.65%
5,CC(C)c1ccc(CNNC(=O)c2ccccc2)cc1,12%
6,CCOC(=O)N1CCN(Cc2nc(N)nc(Nc3ccc(Oc4ccccc4)cc3)n2)CC1,-36.8%
7,CC1=NN(C(=O)c2ccccc2)C(O)(c2ccc(Br)cc2)C1 (stereo not shown),14.8%
8,CC(=O)c1cccc(CN2CCCC(CCC(=O)NCc3ccc(F)c(F)c3)C2)c1 (stereo not shown),-39.3%
9,COc1ccc(N2CCN(C(=O)Cc3ccc(Cl)cc3)CC2)cc1,13.4%
10,COc1cccc(S(=O)(=O)Nc2noc3ccccc23)c1,14%
11,O=c1[nH]ncn1-c1ccc(Br)cc1,9.73%
12,CCc1nn(CC(=O)NCCC(C)C)c(=O)c2cc3c(OC)cccc3n12,12.3%
13,CCOc1ccccc1NC(=O)c1ccc2c(c1)C(=O)N(CC1CCCO1)C2=O (stereo not shown),13.7%
14,CC(C)Cc1ccc(-c2cc(=O)[nH][nH]2)cc1,8.03%
15,Cc1nc(SCC(=O)N2CCc3ccccc32)n[nH]1,12.6%
16,CCCCOC(=O)Nc1ccccc1C(=O)OC,4.58%
17,COc1ccc(-c2cc(=O)oc3cc(O)ccc23)cc1,14.3%
18,NS(=O)(=O)c1ccc(N/C=C/C(=O)c2ccc(Br)cc2)cc1,10.5%
19,O=c1c2ccccc2n2cnnc2n1-c1ccccc1,2.26%
20,Cc1ccc(-n2nc(C)cc2N)c(C)c1.Cl,13.5%
21,Cc1nc(C(=O)NNC(=O)c2ccccc2Cl)c(C(F)(F)F)o1,11.7%
22,COc1ccc(C(=O)CSc2n[nH]c(=O)[nH]c2=O)cc1,12.4%
23,COC(=O)NNC(=O)COc1ccc(Cl)cc1,-11.4%

row,Structure (SMILES),"hERG current change (%, negative = inhibition) at 1uM"
1,Cc1nn(C)c(C)c1Sc1ccccc1N,14.4%
2,COc1ccc(CNC(=O)CSCc2cccc(Cl)c2)cc1,6.58%
3,COc1cc(NC(=O)CCNS(=O)(=O)c2ccc3c(c2)CCC(=O)N3)cc(OC)c1,11.6%
4,CN(CC(=O)Nc1ccc(Cl)c(C(F)(F)F)c1)C(=O)C1CC(=O)N(Cc2ccco2)C1 (stereo not shown),6.39%
5,COc1ccc(CC2(CO)CCN(Cc3cnn(-c4ccccc4OC)c3)CC2)cc1,-48.4%
6,COc1cccc(-n2nc(C(C)=O)c(=O)[nH]c2=O)c1,11.4%
7,O=C(Cc1ccc(Br)cc1)NNC(=O)Nc1ccc(Cl)cc1,12.9%
8,O=C(NNC(=O)c1ccc2ccccc2c1O)c1cccs1,12.6%
9,COc1ccc2o/c(=N\O)c(C(=O)Nc3ccccc3OC)cc2c1,15.1%
10,O=C(NCc1ccccc1)c1ccc(S(=O)(=O)N2CCCC2)cc1,2.43%
11,CC(=O)Nc1nonc1-c1nc2ccccc2n1CCC#N,10.3%
12,CCC(NC(=O)c1cc(COc2ccc(C)nc2)on1)c1ccc(C)cc1 (stereo not shown),4.56%
13,COc1cccc(CN2CC(C(=O)NC3(c4ccccc4)CC3)CCC2=O)c1 (stereo not shown),7.97%
14,COC(=O)c1ccc(CSc2nnc(NC(=O)C3CCCO3)s2)cc1 (stereo not shown),1.91%
15,COc1ccc(CCC(=O)O)c(O)c1,7.81%
16,COc1ccc(CC(CC(=O)O)C(=O)Nc2ccc(OC)cc2)cc1 (stereo not shown),7.68%
17,CCOc1ccc(CCNC(=O)CSCC(=O)Nc2ccc(OC)cc2)cc1OCC,8.24%
18,O=C(OCc1ccc(Br)cc1)c1cnc(Cl)c(Cl)c1,15.3%
19,CC(C)Cc1nc(Nc2ccccc2C#N)c2nnn(Cc3ccccc3)c2n1,-5.32%
20,Cn1c(=O)[nH]c(=O)c2c1nc(SCC(=O)O)n2Cc1ccccc1,6.06%
21,CCC(CC)NC(=O)COC(=O)c1ccc(OCC(=O)Nc2ccccc2OC)c(OC)c1,16.8%
22,O=C(OCN1C(=O)C(=O)c2ccccc21)c1ccc(Cl)cc1,21.3%
23,Cc1cc([N+](=O)[O-])cc2c1-c1ncccc1C2=Nc1ccccc1,-2.86%

row,Structure (SMILES),"hERG current change (%, negative = inhibition) at 1uM"
1,O=C(Nc1ccc(Cl)c(S(=O)(=O)N2CCCCC2)c1)C1=COCCO1,1.21%
2,Cl.OCCCCNCc1ccc(OCc2ccc(Cl)cc2Cl)cc1,-0.92%
3,O=C(Nc1ccccc1)Nc1nnc(COc2ccccc2F)s1,9.02%
4,CC(OC(=O)c1ncc(Cl)c(Cl)c1Cl)C(=O)NC1CCCCC1C (stereo not shown),17.3%
5,CC1(C)CC(C(=O)Nc2nccs2)CCO1 (stereo not shown),1.96%
6,CSCC(C)N1CCC(n2nccc2NC(=O)CCOc2ccccc2)CC1 (stereo not shown),13.7%
7,COc1ccccc1N1CCN(C(=O)c2c(C)cc(=O)oc2C)CC1,17.5%
8,Cc1cc(C)c(C(=O)CSc2nnc(C)s2)c(C)c1,26.7%
9,CCOc1ccc(OCC)c(NC(=O)CSc2nnc(-c3cccnc3)o2)c1,6.71%
10,CCOC(=O)C(=O)Nc1nnc(CCc2ccccc2)s1,11.4%
11,O=C(O)CP(=O)(c1ccccc1)c1ccccc1,16%
12,O=C1NCC(c2ccccc2)C1C(=O)N/N=C/c1ccc(Cl)s1 (stereo not shown),8.95%
13,O=C(CN1C(=O)NC2(CCCC2)C1=O)NCC1CCCO1 (stereo not shown),9.93%
14,COc1ccccc1CNC(=O)CCN1C(=O)COc2ccc(C)cc21,16%
15,Cc1ccc(S(=O)(=O)Nc2ccc(SC(F)F)cc2)c(C)c1,13%
16,O=C(c1ccc(F)cc1)N1CCC(C(=O)N2CCN(S(=O)(=O)c3ccccc3Br)CC2)CC1,4.59%
17,COc1cc2c(cc1OC)C(C)N(C(=O)C1=NN(c3cccc(C)c3)C(=O)CC1)CC2 (stereo not shown),10.3%
18,COc1ccc(CCNC(=O)Nc2cccc([N+](=O)[O-])c2)cc1OC,5.22%
19,Cc1cc(C)c(S(C)(=O)=O)c(NN)n1,14%
20,COC(=O)c1scc(C)c1NC(=O)c1ccc(Cl)cc1,5.49%
21,O=C(COc1ccc(Cl)cc1Cl)N/N=C/c1ccc(OC2OC(CO)C(O)C(O)C2O)cc1 (stereo not shown),-0.123%
22,COc1ccc(NC(=O)O/N=C/c2ccc(N(C)C)cc2)cc1,9.08%
